Laboratory results from ChEMBL document CHEMBL4888484, “Replenishing the malaria drug discovery pipeline: Screening and hit evaluation of the MMV Hit Generation Library 1 (HGL1) against asexual blood stage Plasmodium falciparum ,using a nano luciferase reporter read-out” (2022).
The whole screen tested about 150,000 compounds, of which about 540 (0.36%) showed an effect of 50% or more. The list shows a part of the results.

The compounds below were run on Plasmodium falciparum (assay: Primary screen in NF54 nanoGlo assay, in single point, at 2uM, 72h; a lower Z score goes with more inhibition). Settings: timepoint 72 hour.
Format: functional, Erythrocyte

Structure (SMILES)	% Inhibition	Z score
CC(NCC(C)N1CCOCC1C)c1cnn(C(C)C)c1 (centres undefined)	1%	-0.14
CCn1c(=O)c2cc(C(=O)Nc3ccc(OC)c(C(F)(F)F)c3)nn2c2ccccc21	-11%	1.12
CC(=O)Nc1ccc(S(=O)(=O)NCCc2csc(C)n2)cc1	3%	-0.5
COC(C)C(=O)NC1CC(O)C1(C)C (centres undefined)	-4%	0.63
Cn1ncnc1NC(=O)CCCNC(=O)OC(C)(C)C	-5%	0.74
Cc1ccc(-n2nc(C(=O)NCCN3CCOCC3)c(=O)n(Cc3ccccc3)c2=O)cc1	-8%	1.32
CCOc1cccc(CNCCCOC)c1	-3%	0.39
O=C(c1cccs1)N1CCC(C(=O)N2CCCc3cc(S(=O)(=O)N4CCCC4)ccc32)CC1	-11%	2.05
CC(C)(NCc1nccc(N)n1)c1ccccc1Br	3%	-0.67
CCN(CCNC(=O)Cc1ccc(OC)cc1)C1CC1	-6%	0.8
COc1ccc2c(c1NC(=O)c1ccon1)CCC2	-13%	1.29
O=C(NC1CC2CC2C1)C1CCCCS1(=O)=O (centres undefined)	-4%	0.46
COc1c[nH]c(C(=O)Nc2ccn3nnnc3c2)cc1=O	3%	-0.37
Cc1ncc2ccc(C(=O)N3CCc4c(cccc4NS(C)(=O)=O)C3)cn12	-10%	1.32
Cc1nn(C)cc1C(C)NC(=O)N1CC(O)CC1c1cccc(F)c1 (centres undefined)	3%	-0.4
C[C@@H](CCc1ccccc1)NC(=O)NCCCN1CCCC1=O	-8%	1.03
Cc1ccc(C)c(NC(=O)[C@H]2CCCN(S(=O)(=O)c3c[nH]c(C(=O)N4CCCCCC4)c3)C2)c1	-4%	0.45
Cc1ccc(CN2CCN(C(=O)Nc3ccc(Cl)cc3)c3cccnc32)cc1	-15%	1.77
CCc1nnc(Nc2cccc3c2OCC[C@@H]3O)nc1CC	11%	-1.36
Cc1nc(N2CCC[C@H](C(=O)Nc3cccc(C(F)(F)F)c3)C2)c2c(C)c(C)oc2n1	-2%	0.16
COc1ccc(NS(=O)(=O)c2ccc3oc(Nc4ccc5c(c4)OCCO5)nc3c2)cc1	-18%	3.32
O=C(C[C@H]1COCCN1)Nc1ccccc1OCCc1ccccn1	11%	-1.62

Structure (SMILES)	% Inhibition	Z score
CCCC(=O)N1CCS(=O)(=O)CC1	-21%	2.64
O=C1N(C2CCOCC2)C[C@H]2CN(Cc3ccccc3F)CCN12	0%	-0.03
O=C(Nc1cnc2ccccc2c1O)N1CCCC1	-16%	2.92
O=S(=O)(CCc1nnc(-c2ccc(Br)cc2)o1)c1ccc(Cl)cc1	0%	0.02
Cc1cc(C(=O)N(Cc2cnn(C)c2)C2CCCCC2)c(=O)[nH]c1C	-6%	1.13
CCOc1ccc(NC(=O)C[C@H]2CC(C)(C)OC2=O)cc1	-15%	1.88
COc1cccc(NC(=O)Cn2c(C)ccc(NS(=O)(=O)c3ccc(C)cc3)c2=O)c1	74%	-9.85
Cc1noc(C)c1N(C)Cc1ccccc1C(=O)O	-13%	1.92
Cc1ccc(NC(=O)N2CCC[C@H](OCc3ccccc3C)C2)cc1	15%	-1.67
O=C(O)c1cccc(CN2CC(Cc3ccccc3Cl)C2)c1	-7%	0.88
COc1cccc(CN2CC3(CCN(C(=O)c4ccc(F)cc4)CC3)CC2=O)c1	-20%	1.88
CN(C)c1cccc(C(=O)N2CCN([C@@H](c3ccccc3)c3ccc(Cl)cc3)CC2)c1	4%	-0.58
CCCN(Cc1cccnc1)C(=O)c1cccc(=O)[nH]1	7%	-1.18
CCOc1ccc(-c2cc3c(=O)n(Cc4cc(C)ccc4C)ccn3n2)cc1	7%	-0.87
CC(C)Oc1ccc(NCC(=O)N[C@@H](C)c2cccs2)cc1C(N)=O	-5%	0.64
Cc1noc(-c2nn(C)c3c2CN(C(=O)COc2ccc(F)cc2)CC3)n1	1%	-0.1
Cc1cccc(C(=O)N2C(C(=O)NCC3CCCO3)COC23CCN(C(=O)c2ccccc2C)CC3)c1 (centres undefined)	-9%	1.52
Cc1sc(NC(N)=O)nc1Cc1ccccc1	34%	-4.58
CCc1cccc(NC(=O)Cn2cc(-c3ccccc3)c3ncn(C4CC4)c(=O)c32)c1	-6%	0.9
Cc1c(C(c2ccc(O)c(Br)c2)c2c(C)n(C)c3ccccc23)c2ccccc2n1C	3%	-0.5
COCc1nc(CN[C@H]2CC(C)(C)OC2(C)C)no1	-11%	1.27
CCCCNC(=O)c1ccc(-c2ccnc3[nH]ccc23)o1	1%	-0.19

Structure (SMILES)	% Inhibition	Z score
CCOCC(=O)NCCn1ccn2nccc12	-13%	1.63
Cc1noc(Cl)c1CCC(=O)N(C)c1nccs1	-10%	0.98
CCn1cc(C(=O)NCCS(=O)(=O)CC)cn1	8%	-1.03
COc1cccc(CN2CCC[C@@]3(CCN(Cc4ccccn4)C3)C2)c1OC	-4%	0.43
O=C(CNc1cccc(C(F)(F)F)c1)OCC(=O)N1CCNC1=O	32%	-0.58
Cc1cc(C)n(CC(=O)N2Cc3cccnc3C2)n1	-9%	0.91
COc1ccccc1C[C@@H]1CC[C@H](CN2CCCC2)O1	-16%	1.94
COc1ccc(F)cc1S(=O)(=O)N1CCc2ncncc2C1	-3%	0.62
C[C@H](NC(=O)N(C)CC(F)(F)F)c1cc(F)cc(F)c1	-6%	0.62
Cc1ccc(Cn2ccnc2C(=O)N2CCCC2)cc1	1%	-0.19
O=C(NCc1cn2c(n1)C(=O)N(Cc1ccccc1)CC2)c1cn[nH]c1	-8%	1.11
Cc1ccc(F)cc1CN1CCC(NC(=O)c2cnn(C)c2)CC1	1%	-0.16
C[C@@H](CCc1ccccc1)NC(=O)C(C)(C)C	-2%	0.34
O=C(Nc1cnc(Oc2ccccc2)nc1)C1CCCC1	2%	-0.45
Cc1cccc(-n2nnnc2C2(N3CCCC3)CCCC2)c1	-4%	0.51
CC(C)(C)OC(=O)N1CCC(c2cnc(N)s2)CC1	-4%	0.63
CC(C)CNC(=O)c1cn2ccnc(-c3ccc(F)cc3)c2n1	-20%	3.13
CCOc1ncccc1NCc1cccc(OCCOC)c1	-13%	1.12
CN1CCC(N(CCc2ccccc2)Cc2cncn2C2CC2)CC1	-16%	1.76
NC(=O)c1cccnc1NCC1(CO)CCOCC1	-1%	0.09
Cc1c(F)cccc1C(=O)N[C@@H]1CCCC[C@H]1S(C)(=O)=O	-14%	2.15
CCCn1c(=O)c2sc(N3CCCCC3)nc2n(CC(=O)Nc2ccc3c(c2)OCCO3)c1=O	-27%	2.38

Structure (SMILES)	% Inhibition	Z score
O=C(c1nccnc1-c1nc2ccccc2s1)N1CCCCCC1	-9%	1.17
O=C(NCc1ccc[nH]1)C(=O)Nc1ccc2c(c1)CCC2	-4%	0.57
O=C(NCc1cccnc1)c1nc(-c2ccnc(N3CCCC3)c2)no1	-3%	0.46
Cc1nc(C2CC2)ncc1C(=O)NCCCN1CCCC1=O	-8%	1.12
Cc1nnc(N2CCC(NC(=O)c3ccccc3)CC2)c(C#N)c1C	-12%	2.37
Cc1nccc(-c2cc(O)cc(CC[C@H]3CCCCN3)c2)n1	-12%	2.52
COc1ccccc1C1CCC(C)CN1S(=O)(=O)CCCC#N (centres undefined)	-16%	1.65
CN(Cc1nccs1)C(=O)c1cc(CCc2ccccc2)no1	-8%	1.12
CN(c1ccnc(C(=O)N2CCN(Cc3ccccc3)CC2)c1)S(=O)(=O)c1ccccc1	-12%	1.97
Cn1c(C(=O)N2CCOCC2)c(-c2ccc(Cl)cc2)c2cc(Cl)ccc21	-24%	2.15
O=C(NC1CCCCC1)N1CC[C@H](n2ccnn2)C1	-10%	1.77
CC(C(=O)O)c1cccc(NC(=O)C2CCc3cc(F)ccc32)c1 (centres undefined)	12%	-1.46
Cc1nc(C(C)C)sc1CNC(=O)CCn1ccc(=O)[nH]c1=O	-14%	1.92
COc1ccc(N(Cc2cccs2)S(=O)(=O)c2ccccc2Cl)cc1	-17%	2.12
CCCCn1nc(C)cc1NC(=O)NCC(F)(F)F	-11%	2.09
Cc1nc(C)c(CC(=O)N2CCN(c3ccccc3)CC2)c(=O)[nH]1	-33%	3.87
Cc1ccc(CS(=O)(=O)N2CCC[C@H]2c2ncc(C)n2Cc2cccnc2)cc1	0%	0
Cc1cccc(-c2cc(-c3cccc(C)c3)n(-c3nc(-c4ccccc4)cs3)n2)c1	7%	-1.07
Cc1ccc(-c2nn(CC(=O)NC3CCCCC3)c3c2cnc2ccccc23)cc1	-7%	1.18
Cc1c(NCC(=O)NC(=O)NCC(C)C)cccc1C(N)=O	-8%	1.03
CCn1cc(S(=O)(=O)N2CCC(CCc3nc(C4CCOCC4)no3)CC2)cn1	-15%	2.09
